We go through one molecule from the supplement of paper PMC8728848.

What all share (experiment): glycan array binding signal (z-score within array); higher = stronger binding
What all share (settings): glycan notation: IUPAC condensed, linker removed

Assay [1] deals with Gal(b1-4)GlcNAc(b1-3)Gal(b1-3)GlcNAc. In short, it runs like this:
(§1)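 The binding signal is a Z-score computed within each array. Data were drawn from 3228 arrays in the Consortium for Functional Glycomics database, restricted to those with a known protein sequence. Scores were averaged over arrays of the same protein sequence at different concentrations or buffers, and over linkers, and negative values can be taken as non-binding.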

The target in assay [2] is Gal(b1-4)GlcNAc(b1-3)Gal(b1-4)Glc. In short, it runs like this: as §1
Assay [3] deals with Gal(b1-4)GlcNAc(b1-3)Gal(b1-4)GlcNAc. In short, it runs like this:
as §1

The target of assay [4] is Gal(b1-4)GlcNAc(b1-3)Gal(b1-4)GlcNAc(b1-2)Man(a1-3)[Gal(b1-4)GlcNAc(b1-3)Gal(b1-4)GlcNAc(b1-2)Man(a1-6)]Man(b1-4)GlcNAc(b1-4)GlcNAc. In short, it runs like this: as §1
The target of assay [5] is Gal(b1-4)GlcNAc(b1-3)Gal(b1-4)GlcNAc(b1-2)Man(a1-3)[Gal(b1-4)GlcNAc(b1-3)Gal(b1-4)GlcNAc(b1-2)Man(a1-6)]Man(b1-4)GlcNAc(b1-4)[Fuc(a1-6)]GlcNAc. The method in brief: as §1
The target in assay [6] is Gal(b1-4)GlcNAc(b1-3)Gal(b1-4)GlcNAc(b1-2)[Gal(b1-4)GlcNAc(b1-3)Gal(b1-4)GlcNAc(b1-6)]Man(a1-6)[Gal(b1-4)GlcNAc(b1-3)Gal(b1-4)GlcNAc(b1-2)Man(a1-3)]Man(b1-4)GlcNAc(b1-4)GlcNAc. The method in brief:
as §1

Assay [7] deals with Gal(b1-4)GlcNAc(b1-3)Gal(b1-4)GlcNAc(b1-2)[Gal(b1-4)GlcNAc(b1-3)Gal(b1-4)GlcNAc(b1-6)]Man(a1-6)[Gal(b1-4)GlcNAc(b1-3)Gal(b1-4)GlcNAc(b1-2)Man(a1-3)]Man(b1-4)GlcNAc(b1-4)[Fuc(a1-6)]GlcNAc. The method in brief:
as §1

Assay [8] addresses Gal(b1-4)GlcNAc(b1-3)Gal(b1-4)GlcNAc(b1-3)Gal(b1-4)GlcNAc. The method in brief:
as §1

In assay [9] the target is Gal(b1-4)GlcNAc(b1-3)Gal(b1-4)GlcNAc(b1-3)Gal(b1-4)GlcNAc(b1-2)Man(a1-3)[Gal(b1-4)GlcNAc(b1-3)Gal(b1-4)GlcNAc(b1-3)Gal(b1-4)GlcNAc(b1-2)Man(a1-6)]Man(b1-4)GlcNAc(b1-4)GlcNAc. In short, it runs like this: as §1
Assay [10] addresses Gal(b1-4)GlcNAc(b1-3)Gal(b1-4)GlcNAc(b1-3)Gal(b1-4)GlcNAc(b1-2)Man(a1-3)[Gal(b1-4)GlcNAc(b1-3)Gal(b1-4)GlcNAc(b1-3)Gal(b1-4)GlcNAc(b1-2)Man(a1-6)]Man(b1-4)GlcNAc(b1-4)[Fuc(a1-6)]GlcNAc. In short, it runs like this: as §1
For assay [11], the target named is Gal(b1-4)GlcNAc(b1-3)Gal(b1-4)GlcNAc(b1-3)Gal(b1-4)GlcNAc(b1-2)[Gal(b1-4)GlcNAc(b1-3)Gal(b1-4)GlcNAc(b1-3)Gal(b1-4)GlcNAc(b1-6)]Man(a1-6)[Gal(b1-4)GlcNAc(b1-3)Gal(b1-4)GlcNAc(b1-3)Gal(b1-4)GlcNAc(b1-2)Man(a1-3)]Man(b1-4)GlcNAc(b1-4)[Fuc(a1-6)]GlcNAc. The method in brief:
as §1

Assay [12] concerns the target Gal(b1-4)GlcNAc(b1-3)Gal(b1-4)GlcNAc(b1-3)Gal(b1-4)GlcNAc(b1-3)Gal(b1-4)GlcNAc(b1-2)Man(a1-3)[Gal(b1-4)GlcNAc(b1-3)Gal(b1-4)GlcNAc(b1-3)Gal(b1-4)GlcNAc(b1-3)Gal(b1-4)GlcNAc(b1-2)Man(a1-6)]Man(b1-4)GlcNAc(b1-4)GlcNAc. The method in brief:
as §1

For assay [13], the target named is Gal(b1-4)GlcNAc(b1-3)Gal(b1-4)GlcNAc(b1-3)Gal(b1-4)GlcNAc(b1-3)Gal(b1-4)GlcNAc(b1-2)Man(a1-3)[Gal(b1-4)GlcNAc(b1-3)Gal(b1-4)GlcNAc(b1-3)Gal(b1-4)GlcNAc(b1-3)Gal(b1-4)GlcNAc(b1-2)Man(a1-6)]Man(b1-4)GlcNAc(b1-4)[Fuc(a1-6)]GlcNAc. The method in brief:
as §1

The target of assay [14] is Gal(b1-4)GlcNAc(b1-3)Gal(b1-4)GlcNAc(b1-3)Gal(b1-4)GlcNAc(b1-3)Gal(b1-4)GlcNAc(b1-2)[Gal(b1-4)GlcNAc(b1-3)Gal(b1-4)GlcNAc(b1-3)Gal(b1-4)GlcNAc(b1-3)Gal(b1-4)GlcNAc(b1-6)]Man(a1-6)[Gal(b1-4)GlcNAc(b1-3)Gal(b1-4)GlcNAc(b1-3)Gal(b1-4)GlcNAc(b1-3)Gal(b1-4)GlcNAc(b1-2)Man(a1-3)]Man(b1-4)GlcNAc(b1-4)[Fuc(a1-6)]GlcNAc. In short, it runs like this:
as §1

Assay [15] concerns the target Gal(b1-4)GlcNAc(b1-3)Gal(b1-4)GlcNAc(b1-3)Gal(b1-4)GlcNAc(b1-3)Gal(b1-4)GlcNAc(b1-3)Gal(b1-4)GlcNAc(b1-2)Man(a1-3)[Gal(b1-4)GlcNAc(b1-3)Gal(b1-4)GlcNAc(b1-3)Gal(b1-4)GlcNAc(b1-3)Gal(b1-4)GlcNAc(b1-3)Gal(b1-4)GlcNAc(b1-2)Man(a1-6)]Man(b1-4)GlcNAc(b1-4)GlcNAc. In short, it runs like this:
as §1

Assay [16] has as its target Gal(b1-4)GlcNAc(b1-3)Gal(b1-4)GlcNAc(b1-3)Gal(b1-4)GlcNAc(b1-3)Gal(b1-4)GlcNAc(b1-3)Gal(b1-4)GlcNAc(b1-2)Man(a1-3)[Gal(b1-4)GlcNAc(b1-3)Gal(b1-4)GlcNAc(b1-3)Gal(b1-4)GlcNAc(b1-3)Gal(b1-4)GlcNAc(b1-3)Gal(b1-4)GlcNAc(b1-2)Man(a1-6)]Man(b1-4)GlcNAc(b1-4)[Fuc(a1-6)]GlcNAc. In short, it runs like this: as §1
Assay [17] addresses Gal(b1-4)GlcNAc(b1-3)Gal(b1-4)GlcNAc(b1-3)Gal(b1-4)GlcNAc(b1-3)Gal(b1-4)GlcNAc(b1-3)Gal(b1-4)GlcNAc(b1-2)[Gal(b1-4)GlcNAc(b1-3)Gal(b1-4)GlcNAc(b1-3)Gal(b1-4)GlcNAc(b1-3)Gal(b1-4)GlcNAc(b1-3)Gal(b1-4)GlcNAc(b1-6)]Man(a1-6)[Gal(b1-4)GlcNAc(b1-3)Gal(b1-4)GlcNAc(b1-3)Gal(b1-4)GlcNAc(b1-3)Gal(b1-4)GlcNAc(b1-3)Gal(b1-4)GlcNAc(b1-2)Man(a1-3)]Man(b1-4)GlcNAc(b1-4)[Fuc(a1-6)]GlcNAc. In short, it runs like this: as §1

Assay [18] concerns the target Gal(b1-4)GlcNAc(b1-3)Gal(b1-4)GlcNAc(b1-3)Gal(b1-4)GlcNAc(b1-3)Gal(b1-4)GlcNAc(b1-3)Gal(b1-4)GlcNAc(b1-3)Gal(b1-4)GlcNAc(b1-2)Man(a1-3)[Gal(b1-4)GlcNAc(b1-3)Gal(b1-4)GlcNAc(b1-3)Gal(b1-4)GlcNAc(b1-3)Gal(b1-4)GlcNAc(b1-3)Gal(b1-4)GlcNAc(b1-3)Gal(b1-4)GlcNAc(b1-2)Man(a1-6)]Man(b1-4)GlcNAc(b1-4)GlcNAc. The method in brief: as §1
The target of assay [19] is Gal(b1-4)GlcNAc(b1-3)Gal(b1-4)GlcNAc(b1-3)GalNAc. In short, it runs like this: as §1

The list shows a part of the results.

B1: Als3-41 (Candida albicans) (protein)
chain: KTITGVFNSFNSLTWSNAATYNYKGPGTPTWNAVLGWSLDGTSASPGDTFTLNMPCVFKFTTSQTSVDLTAHGVKYATCQFQAGEEFMTFSTLTCTVSNTLTPSIKALGTVTLPLAFNVGGTGSSVDLEDSKCFTAGTNTVTFNDGGKKISINVDFERSNVDPKGYLTDSRVIPSLNKVSTLFVAPQCANGYTSGTMGFANTYGDVQIDCSNIHVGITKGLNDWNYPVSSESFSYTKTCSSNGIFITYKNVPAGYRPFVDAYISATDVNSYTLSYANEYTCAGGYWQRAPFTLRWTGYRNSDAGSNGIVIVATTRTVTDSTTAVTTLPFDPNRDKTKTIEILKPIPTTTITTSYVGVTTSYLTKTAPIGETATVIVD
Consider B1, for which the “glycan array binding signal (z-score)” value is -0.341 in [1]; -0.303 in assay [2]; -0.277 in assay [3]; 6.2 in assay [4]; -0.046 in assay [5]; 1.54 in [6]. Moreover, the “glycan array binding signal (z-score)” value in assay [7] was -0.085; in assay [8], -0.354; in [9], 2.56; in [10], -0.126; in assay [11] it was 0.011; in assay [12] it was -0.136. The “glycan array binding signal (z-score)” value in assay [13] is 0.022; in assay [14], 0.219; in [15], 1.05; in [16], -0.149; in assay [17] it was -0.117; in assay [18] it was -0.051. Also, in [19], the “glycan array binding signal (z-score)” value is 0.305.
